{"source": "patent US8592383B2", "about": "“Cycloalkyl-fused tetrahydroquinolines as CRTH2 receptor modulators” (Merck Sharp & Dohme Corp., priority 2011, dated 2013)", "data": [{"target": "T1, hCRTH2 (Homo sapiens, UniProt Q9Y5Y4)", "T1 sequence (Q9Y5Y4 1-395)": "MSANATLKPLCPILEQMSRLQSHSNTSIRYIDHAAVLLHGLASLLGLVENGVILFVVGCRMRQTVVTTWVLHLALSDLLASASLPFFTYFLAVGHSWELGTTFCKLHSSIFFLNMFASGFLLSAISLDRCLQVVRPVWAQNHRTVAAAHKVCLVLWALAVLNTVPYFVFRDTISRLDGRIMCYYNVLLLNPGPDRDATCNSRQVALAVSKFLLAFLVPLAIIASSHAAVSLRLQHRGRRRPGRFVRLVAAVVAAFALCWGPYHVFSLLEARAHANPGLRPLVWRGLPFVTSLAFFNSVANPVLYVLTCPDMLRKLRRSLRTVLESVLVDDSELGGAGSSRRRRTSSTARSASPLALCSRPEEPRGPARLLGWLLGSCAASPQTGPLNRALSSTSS", "experiment": "biochemical", "conditions": "Ki (nM), Table A; Radioligand Binding Assay A, [3H]PGD2, HEK-hCRTH2 membranes", "units": {"Ki": "nM"}, "values": [{"smiles": "O=C(O)CCC(=O)N(C1CC1)C1c2ccccc2N(C(=O)Nc2ccccc2)C2CCCC21", "note": "(racemic) [23G, 4-[cyclopropyl[cis,cis-2,3,3a,4,9,9a-hexahydro-4-[(phenylamino)carbonyl]-1H-cyclopenta[b]quinolin-9-yl]amino]-4-oxobutanoic acid]", "Ki": "20.1 to 200"}, {"smiles": "O=C(O)CCC(=O)N(CCO)C1c2ccccc2N(C(=O)OCc2ccccc2)C2CCC12", "note": "(single isomer, unassigned) [compound 110, 3-(phenylmethyl) cis, cis-[(3-carboxy-1-oxopropyl)(2-hydroxyethyl)amino]-2,2a,8,8a-tetrahydrocyclobuta[b] quinoline-3(1H)-carboxylate]", "Ki": "201 to 7500"}, {"smiles": "O=C(O)CCC(=O)N(C1CC1)[C@H]1c2cc(F)ccc2N(C(=O)c2ccc(OC(F)(F)F)cc2)[C@H]2CCC[C@H]21", "note": "[compound 17, 4-(cyclopropyl((3aS,9R,9aR)-7-fluoro-4-(4-(trifluoromethoxy)benzoyl)-2,3,3a,4,9,9a-hexahydro-1H-cyclopenta[b]quinolin-9-yl)amino)-4-oxobutanoic acid]", "Ki": "5.1 to 20"}, {"smiles": "O=C(O)C1CC1CN(C1CC1)C1c2ccccc2N(C(=O)c2ccc(OC(F)(F)F)cc2)C2CCCC21", "note": "(racemic) [44C, trans-2-[[cyclopropyl[cis,cis-2,3,3a,4,9,9a-hexahydro-4-[4-(trifluoromethoxy)benzoyl]-1H-cyclopenta[b]quinolin-9-yl]amino]methyl]cyclopropane-carboxylic acid]", "Ki": "20.1 to 200"}, {"smiles": "O=C(O)CCC(=O)N(C1CC1)C1c2ccccc2N(C(=O)c2cccc(F)c2)C2CCC21", "note": "(single isomer, unassigned) [27R, 4-[cyclopropyl[cis, cis-3-(3-fluorobenzoyl)-1,2,2a,3,8,8a-hexahydrocyclobuta[b]quinolin-8-yl]amino]-4-oxobutanoic acid]", "Ki": "5.1 to 20"}, {"smiles": "O=C(O)CCC(=O)N(C1CCC1)[C@@H]1c2ccc(Cl)cc2N(C(=O)c2ccc(OC(F)(F)F)cc2)[C@@H]2CCC[C@@H]21", "note": "(racemic) [17CH, 4-[[cis,cis-6-chloro-2,3,3a,4,9,9a-hexahydro-4-[4-(trifluoromethoxy)benzoyl]-1H-cyclopenta[b]quinolin-9-yl]cyclobutylamino]-4-oxobutanoic acid]", "Ki": "5.1 to 20"}, {"smiles": "O=C(O)CCC(=O)N(C1CC1)[C@@H]1c2cc(C(F)F)ccc2N(C(=O)c2ccc(OC(F)(F)F)cc2)[C@@H]2CCC[C@@H]21", "note": "(single isomer, unassigned) [compound 57, 4-(cyclopropyl((cis,cis,)-7-(difluoromethyl)-4-(4-(trifluoromethoxy)benzoyl)-2,3,3a,4,9,9a-hexahydro-1H-cyclopenta[b]quinolin-9-yl)amino)-4-oxobutanoic acid]", "Ki": "5.1 to 20"}, {"smiles": "O=C(O)CCC(=O)N(C1CC1)[C@@H]1c2cc(CF)ccc2N(C(=O)c2ccc(OC(F)(F)F)cc2)[C@@H]2CCC[C@@H]21", "note": "(single isomer, unassigned) [compound 56, 4-(Cyclopropyl((cis,cis,)-7-(fluoromethyl)-4-(4-(trifluoromethoxy)benzoyl)-2,3,3a,4,9,9a-hexahydro-1H-cyclopenta[b]quinolin-9-yl)amino)-4-oxobutanoic acid]", "Ki": "5.1 to 20"}, {"smiles": "O=C(O)CCC(=O)N(C1CC1)C1c2ccccc2N(C(=O)c2ccc(OC(F)F)cc2)C2CCCC21", "note": "(racemic) [17AP, 4-[cyclopropyl[cis,cis-4-[4-(difluoromethoxy)benzoyl]-2,3,3a,4,9,9a-hexahydro-1H-cyclopenta[b]quinolin-9-yl]amino]-4-oxobutanoic acid]", "Ki": "5.1 to 20"}, {"smiles": "Cc1cccc(C(=O)N2c3ccccc3C(N(C(=O)CCC(=O)O)C3CC3)C3CCCC32)c1", "note": "(racemic) [17AT, 4-(cyclopropyl(cis,cis-4-(3-methylbenzoyl)-2,3,3a,4,9,9a-hexahydro-1H-cyclopenta[b]quinolin-9-yl)amino)-4-oxobutanoic acid]", "Ki": "5.1 to 20"}]}]}
